Some of the results follow. The full chains were built here from the parent and the listed change. Inactive controls read about 0.05.
B1: TEV protease; numbered along this chain (parent)
chain: MGESLFKGPRDYNPISSSICHLTNESDGHTTSLYGIGFGPFIITNKHLFRRNNGTLVVQSLHGVFKVKDTTTLQQHLVDGRDMIIIRMPKDFPPFPQKLKFREPQREERICLVTTNFQTKSMSSMVSDTSCTFPSGDGIFWKHWIQTKDGQCGSPLVSTRDGFIVGIHSASNFTNTNNYFTSVPKNFMELLTNQEAQQWVSGWRLNADSVLWGGHKVFMVKPEEPFQPVKEATQL

Variants of: B1
Assay: raw area under fraction-flipped curve 0-4 h after induction (AUC4h, not background-subtracted), DNA-recorder readout of cleavage of the substrate (dimensionless); higher = more cleavage of the substrate by the protease variant
Settings: temperature: 34 °C; time window: 0-4 h after rhamnose induction
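Further: Bxb1 expression induced with 0.2% (w/v) L-rhamnose at OD600 near 0.5, cultures sampled hourly, flipped fraction per protease–substrate barcode pair counted by paired-end Illumina sequencing.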

Variant | area with substrate EDLYFQS | area with substrate EELYFQS | area with substrate EFLYFQS | area with substrate EGLYFQS | area with substrate EHLYFQS | area with substrate EILYFQS | area with substrate ELLYFQS | area with substrate EMLYFQS | area with substrate EQLYFQS | area with substrate ESLYFQS | area with substrate EVLYFQS | area with substrate EYLYFQS | area with substrate EKLYFQS | area with substrate ERLYFQS | area with substrate EWLYFQS | area with substrate EPLYFQS | area with substrate ETLYFQS
S124T | 0.117 | 0.12 | 0.0976 | 0.0954 | 0.0864 | 0.0732 | 0.0856 | 0.0953 | 0.0945 | 0.118 | 0.111 | 0.123 | – | – | – | – | –
D137Y | 0.176 | 0.104 | 0.0952 | 0.0763 | – | – | 0.113 | – | – | – | – | 0.106 | 0.104 | 0.0907 | 0.0999 | – | –
G150Q | 0.0512 | 0.0774 | – | 0.0583 | – | 0.0635 | 0.0594 | 0.0531 | 0.0525 | 0.0571 | – | – | – | 0.0614 | 0.0673 | – | –
S154F | 0.108 | – | – | – | 0.0856 | 0.0789 | 0.0889 | – | 0.0951 | 0.1 | – | 0.0725 | – | 0.0912 | – | 0.0965 | –
P155V | 0.0954 | 0.129 | – | 0.0534 | 0.0959 | – | – | – | 0.118 | 0.0921 | 0.0741 | – | – | 0.048 | 0.0923 | – | –
D161R | 0.0731 | – | – | – | 0.0675 | 0.0496 | 0.0542 | – | 0.0588 | 0.0558 | 0.0567 | – | – | 0.0677 | – | 0.0503 | –
D161Y | 0.0717 | 0.0673 | 0.0635 | – | 0.0431 | 0.0642 | 0.0576 | – | 0.0714 | 0.0788 | – | – | 0.0706 | 0.0588 | 0.072 | – | –
T192A | 0.112 | – | – | 0.0769 | 0.105 | 0.105 | 0.0854 | 0.105 | 0.111 | 0.0797 | 0.0705 | – | 0.0873 | 0.0883 | – | – | 0.0969
G202Y | 0.0852 | 0.0607 | – | 0.0701 | 0.053 | 0.059 | – | – | – | 0.0503 | 0.0516 | – | 0.0597 | 0.023 | – | – | 0.0615
A207N | 0.167 | 0.134 | 0.163 | 0.0883 | – | 0.0854 | 0.0951 | – | – | 0.0892 | 0.0963 | 0.0942 | – | 0.083 | – | 0.11 | 0.0847
A207P | 0.104 | – | 0.0692 | – | 0.0966 | – | 0.0801 | 0.138 | – | 0.0871 | 0.0722 | 0.0854 | – | 0.0538 | 0.0786 | 0.11 | –
G213L | 0.0429 | – | 0.0536 | – | – | 0.0472 | 0.0569 | 0.121 | – | 0.0642 | – | – | 0.0631 | 0.0412 | 0.0498 | 0.036 | –
P222E | 0.114 | 0.0848 | 0.0712 | – | – | – | – | 0.0973 | – | 0.111 | 0.116 | 0.0802 | 0.0904 | 0.119 | – | 0.104 | 0.116
V229G | 0.117 | 0.126 | 0.113 | 0.0829 | 0.136 | 0.0586 | 0.0889 | 0.133 | 0.129 | 0.0918 | 0.116 | – | 0.119 | 0.105 | – | 0.138 | –
E231A | 0.131 | – | – | 0.0836 | – | – | – | 0.104 | 0.11 | 0.0738 | – | – | 0.138 | – | – | 0.145 | 0.119
G8Q | – | 0.116 | – | – | 0.104 | – | – | – | – | 0.103 | 0.0998 | 0.0855 | 0.152 | – | – | – | –
R10H | – | 0.108 | – | 0.0858 | – | 0.0931 | 0.0709 | 0.101 | – | 0.0037 | – | – | 0.0796 | 0.0796 | 0.081 | 0.0986 | 0.0934
H29K | – | 0.136 | – | – | 0.0779 | – | 0.0882 | 0.115 | – | 0.0952 | – | – | – | – | – | 0.0845 | –
R51K | – | 0.105 | – | – | – | 0.0765 | – | 0.108 | 0.124 | 0.0859 | – | 0.108 | 0.117 | – | – | – | 0.15
T55F | – | 0.08 | – | 0.0822 | 0.101 | 0.0837 | 0.106 | 0.109 | 0.061 | 0.112 | 0.0937 | 0.102 | 0.131 | – | 0.104 | 0.145 | 0.111
S60P | – | 0.0582 | – | 0.0548 | 0.0575 | 0.056 | 0.0454 | 0.0715 | – | – | 0.0489 | 0.0584 | 0.0603 | – | 0.0533 | 0.0657 | –

Variant | area with substrate EDLYFQS | area with substrate EELYFQS | area with substrate EFLYFQS | area with substrate EGLYFQS | area with substrate EHLYFQS | area with substrate EILYFQS | area with substrate ELLYFQS | area with substrate EMLYFQS | area with substrate EQLYFQS | area with substrate ESLYFQS | area with substrate EVLYFQS | area with substrate EYLYFQS | area with substrate EKLYFQS | area with substrate ERLYFQS | area with substrate EWLYFQS | area with substrate EPLYFQS | area with substrate ETLYFQS
Q74R | – | 0.101 | 0.0962 | – | 0.0713 | 0.0884 | 0.0454 | 0.104 | 0.104 | 0.0892 | – | 0.105 | – | 0.0872 | 0.0844 | 0.111 | 0.12
I86D | – | 0.027 | 0.0578 | 0.0405 | – | 0.0389 | – | – | 0.0583 | – | 0.0491 | – | – | 0.042 | – | – | –
F92E | – | 0.0946 | 0.088 | 0.0912 | 0.0634 | 0.0716 | 0.0854 | 0.103 | – | 0.0853 | – | – | 0.0844 | 0.0785 | – | 0.0922 | –
F101K | – | 0.0559 | – | 0.0599 | – | – | – | – | – | – | 0.0475 | 0.0485 | 0.067 | – | – | – | –
Q105E | – | 0.119 | – | 0.0893 | 0.0792 | 0.103 | – | – | 0.151 | 0.0896 | – | – | 0.117 | – | – | – | 0.109
S124F | – | 0.0962 | 0.124 | 0.0948 | 0.0966 | – | 0.103 | 0.0755 | – | 0.0909 | 0.0812 | 0.109 | 0.118 | 0.1 | 0.0988 | 0.108 | –
C131D | – | 0.0919 | 0.0853 | – | 0.0833 | – | – | – | 0.11 | – | 0.0947 | – | 0.0929 | – | 0.0813 | – | –
S135P | – | 0.0858 | – | 0.091 | – | 0.075 | 0.0779 | 0.0774 | 0.0732 | 0.0775 | 0.0764 | 0.0637 | 0.0496 | – | – | – | –
G136Y | – | 0.123 | – | – | 0.134 | 0.0915 | – | – | 0.099 | 0.115 | – | – | 0.108 | 0.115 | – | 0.141 | 0.102
G138V | – | 0.0659 | – | 0.0741 | – | 0.0997 | – | 0.113 | 0.0864 | 0.0858 | – | – | 0.133 | 0.0738 | – | – | –
K142P | – | 0.0622 | 0.0602 | 0.0694 | 0.0697 | 0.0741 | 0.0698 | 0.0845 | 0.0818 | 0.0746 | – | 0.0847 | 0.0747 | 0.0596 | 0.0608 | – | –
S154M | – | 0.116 | – | 0.0872 | – | 0.106 | – | 0.111 | 0.102 | 0.0933 | 0.0958 | – | 0.0899 | 0.104 | – | – | –
G162S | – | 0.111 | – | – | 0.0912 | 0.0902 | – | – | 0.101 | 0.103 | 0.0821 | – | – | 0.0976 | – | – | –
E189A | – | 0.0974 | – | 0.0941 | 0.105 | – | 0.0977 | 0.0863 | 0.0906 | 0.107 | – | – | 0.104 | – | – | – | –
T192F | – | 0.159 | 0.215 | – | – | 0.101 | – | 0.116 | 0.117 | 0.121 | 0.0837 | 0.0752 | 0.0794 | 0.0886 | – | – | –
Q194L | – | 0.103 | 0.0718 | 0.0943 | – | – | 0.0854 | 0.0878 | 0.114 | 0.0696 | 0.0958 | 0.0802 | – | – | – | 0.13 | 0.101
Q198W | – | 0.117 | 0.0577 | 0.0571 | 0.0584 | 0.035 | – | 0.0839 | 0.0875 | 0.0943 | 0.0595 | 0.0515 | 0.0663 | – | 0.0643 | – | –
G202H | – | 0.0782 | – | 0.0662 | – | 0.0539 | – | – | – | 0.0384 | 0.0582 | 0.0689 | 0.0905 | 0.0726 | 0.0926 | 0.0758 | 0.066
T233R | – | 0.111 | 0.0884 | – | – | 0.127 | 0.0824 | 0.121 | 0.118 | 0.118 | 0.0817 | 0.105 | – | – | 0.144 | 0.113 | –
H168C | – | – | 0.0493 | – | – | – | 0.0537 | – | – | – | 0.058 | 0.0581 | 0.0527 | – | – | – | –

Source: the supplement of paper PMC12217912
